Here are results for 59 molecules from PubChem BioAssay AID360 (National Center for Advancing Translational Sciences (NCATS), 2006).

The whole screen tested about 48,000 compounds, of which about 550 (1.1%) were called active. Inconclusive results (about 4%) are left out. No stated cut-off is given here; in the data, active means potency below about 15 µM; inconclusive means mostly about 16 µM to 33 µM; inactive means weaker than that. This is one part of the list.
Potency means the concentration at half of the fitted maximal effect.

UniProt P04062, sequence (P04062 whole entry, looked up): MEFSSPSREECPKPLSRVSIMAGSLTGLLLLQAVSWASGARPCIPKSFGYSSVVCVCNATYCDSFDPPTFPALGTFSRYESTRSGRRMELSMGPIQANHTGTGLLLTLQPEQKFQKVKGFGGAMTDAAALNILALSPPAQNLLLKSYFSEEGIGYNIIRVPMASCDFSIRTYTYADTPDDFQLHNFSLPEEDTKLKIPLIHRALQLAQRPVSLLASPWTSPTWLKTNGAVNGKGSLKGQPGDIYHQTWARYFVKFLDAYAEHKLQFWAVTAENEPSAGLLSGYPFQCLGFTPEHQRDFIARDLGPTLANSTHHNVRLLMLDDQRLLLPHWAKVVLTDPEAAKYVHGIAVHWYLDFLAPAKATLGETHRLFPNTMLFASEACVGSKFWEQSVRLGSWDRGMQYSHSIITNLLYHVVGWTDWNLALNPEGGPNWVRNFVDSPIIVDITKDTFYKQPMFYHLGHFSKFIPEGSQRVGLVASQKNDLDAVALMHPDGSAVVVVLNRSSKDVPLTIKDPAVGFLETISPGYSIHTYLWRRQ

The target in the test is Lysosomal acid glucosylceramidase (Homo sapiens) (UniProt P04062). The test is described as follows: Glucocerebrosidase.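 Further: the screen sought inhibitors.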 The note with it: purified enzyme, resorufin glucoside fluorescence (screen aimed at inhibitors), 20 min; series mostly up to 77 µM. In outline:
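Wild-type enzyme at 0.2 nM final in 50mM citric acid/KH2PO4, 10mM sodium taurocholate, 0.01% tween-20, pH 5.9, with resorufin beta-D-glucopyranoside at 30 uM final. Compounds titrated, 20 min at RT, red fluorescence read; AC50 from titration.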
Consider `COCCOC(=O)C1=C(C)NC(=O)N(C(C)=O)C1c1ccc(Cl)cc1` (centres undefined), for which the Potency was inactive: > 76.9 µM.

As for `Cc1ccc(Cn2nnc3c(=O)n(CC(=O)OCc4ccccc4)cnc32)cc1`, the Potency is inactive: > 76.9 µM.

Take `Cc1ccc(N2CC(C(=O)NCCc3ccc(S(N)(=O)=O)cc3)CC2=O)cc1` (centres undefined): the Potency was inactive: > 76.9 µM.

With `N#CC1=C(N)N(c2ccc(Oc3ccccc3)cc2)C(=O)C1`, the Potency is inactive: > 76.9 µM.

On to `OC1(c2ccc3c(c2)OCO3)CCN(Cc2ccccn2)CC1`, for which the Potency is inactive: > 76.9 µM.

`Cc1ccc(Cn2ccc(NC(=O)c3cc(-c4ccc(F)cc4)on3)n2)cc1`: the Potency was inactive: > 76.9 µM.

Turning to `Cc1nc2c(c(=O)n1Cc1ccccc1Cl)c1nc3ccccc3nc1n2Cc1ccco1`, the Potency was inactive: > 76.9 µM.

Take `COc1ccccc1NC(=O)C1=C(C)Nc2nc(CCCO)nn2C1c1ccc2c(c1)OCO2` (centres undefined): the Potency is inactive: > 76.9 µM.

In the case of `O=C(CCNc1ccccc1)c1ccc2c(c1)OCO2`, the Potency is inactive: > 76.9 µM.

As to `CC1CCCC(NC(=O)CSc2nccn2C)C1C` (centres undefined), the Potency was inactive: > 76.9 µM.

For `Cc1ccc(S(=O)(=O)NCCSc2nnnn2-c2cc(C)ccc2C)cc1`, the Potency was inactive: > 76.9 µM.

`CC(=O)Nc1cc2c(cc1NC(=O)c1cnccn1)OCCO2`: the Potency was inactive: > 76.9 µM.

Regarding `Cn1c(N2CCCCC2)nc2c1c(=O)[nH]c(=O)n2C`, the Potency was inactive: > 76.9 µM.

In the case of `Cc1ccc(OCC(=O)Nc2ccc(N(C)C)cc2)cc1`, the Potency was inactive: > 76.9 µM.

Consider `O=C(Cc1ccccc1)Nc1nc2ccccc2[nH]1`, for which the Potency is inactive: > 76.9 µM.

Take `COc1cccc(-n2nnc3c(=O)n(CC(=O)N4CCCCC4)cnc32)c1`: the Potency is inactive: > 76.9 µM.

Consider `CC(C)Cn1cc(C(=O)N2CCOCC2)c2c3ccccc3n(C)c2c1=O`, for which the Potency was inactive: > 76.9 µM.

As for `O=S(=O)(NCc1cn2ccsc2n1)c1ccc(Oc2ccccc2)cc1`, the Potency was inactive: > 76.9 µM.

`CN(C)CC(O)COc1cc2ccccc2cc1C(=O)N1CCCCC1` (centres undefined): the Potency is inactive: > 76.9 µM.

Regarding `Cc1ccc(CNC(=O)CN2C(=O)COc3ccc(C)cc32)cc1`, the Potency was inactive: > 76.9 µM.

Turning to `CCCN(CCC)c1nc2ccccc2n2c(C)nnc12`, the Potency is inactive: > 76.9 µM.

As to `O=C(CCOc1ccccc1)NCc1ccccc1`, the Potency is inactive: > 76.9 µM.

For `O=C(NCc1cccs1)C1CCN(S(=O)(=O)N2CCCC2)CC1`, the Potency is inactive: > 76.9 µM.

For the molecule `Cc1cc(C)c2c(n1)nn1c(N3CCN(c4ccccc4)CC3)cc(C)nc21`, the Potency result was “inactive”.

Take `COC(=O)c1sc(S(=O)(=O)N2CCN(c3ccccc3)CC2)c(C(=O)OC)c1C`: the Potency was inactive: > 76.9 µM.

Turning to `O=C(Cc1n[nH]c(=O)c2ccccc12)OCC(=O)c1ccc2c(c1)OCCO2`, the Potency is inactive: > 76.9 µM.

`CCCC(=O)N1CCN(c2ccc(NC(=O)c3ccco3)cc2)CC1`: the Potency was inactive: > 76.9 µM.

For the molecule `O=C(CN1CCN(Cc2ccccc2Cl)C1=O)N1CCCCCC1`, the Potency is inactive: > 76.9 µM.

Regarding `CCc1nnc(NC(=O)C2CCCN2C(=O)Nc2ccccc2OC)s1` (centres undefined), the Potency is inactive: > 76.9 µM.

For `O=c1c(F)cn(C2CCCO2)c(=O)n1Cc1ccccc1F` (centres undefined), the Potency was inactive: > 76.9 µM.

Turning to `Nc1c(C(=O)NCCN2CCOCC2)c2nc3ccccc3nc2n1-c1cccc(F)c1`, the Potency entry is “inactive”.

As for `CCOC(=O)CC(=O)Nc1cc(Cl)ccc1O`, the Potency is inactive: > 76.9 µM.

As to `c1ccc(OCCCc2nc(-c3ccccn3)no2)cc1`, the Potency is inactive: > 76.9 µM.

Regarding `COc1cc(OC)c(C2=NOC(C(=O)Nc3cc(C)nn3-c3ccccc3)C2)cc1Cl` (centres undefined), the Potency was inactive: > 76.9 µM.

`CCCCN(C(=O)Cn1nnc2ccccc21)C(C(=O)NCc1ccco1)c1ccncc1` (centres undefined): the Potency is inactive: > 76.9 µM.

Turning to `O=C(c1cccs1)N1CCN(Cc2nc3ccccc3c(=O)[nH]2)CC1`, the Potency is inactive: > 76.9 µM.

As for `O=C(Nn1cnc2ccccc2c1=O)c1ccccc1Cl`, the Potency was inactive: > 76.9 µM.

Regarding `COc1ccc(S(=O)(=O)Nc2c(C)ccc3nsnc23)cc1OC`, the Potency is inactive: > 76.9 µM.

As for `CC(=O)c1ccc(NC2c3ncccc3C(=O)N2Cc2ccc(F)cc2)cc1` (centres undefined), the Potency was inactive: > 76.9 µM.

Turning to `c1ccc(Cn2c(-c3cccs3)nc3nc4ccccc4nc32)cc1`, the Potency was inactive: > 76.9 µM.

For `CCOc1c(C#N)c(C#N)c2nc(C)cc(C)n12`, the Potency was inactive: > 76.9 µM.

Turning to `O=C(CSc1ncn(-c2ccccc2)n1)NCc1ccccc1`, the Potency is inactive: > 76.9 µM.

Consider `Cc1nnc(SCCn2c(N3CCCCCC3)nc3c2c(=O)[nH]c(=O)n3C)s1`, for which the Potency is inactive: > 76.9 µM.

Turning to `CC(=O)OCc1c(F)c(F)c(-n2nc(C)cc2C)c(F)c1F`, the Potency was inactive: > 76.9 µM.

In the case of `CC1CC(C)CN(C(=O)C2CCCN(S(=O)(=O)c3cccc4nonc34)C2)C1` (centres undefined), the Potency was inactive: > 76.9 µM.

Turning to `CCCNS(=O)(=O)c1ccc(OCC(=O)Nc2ccccc2F)cc1`, the Potency was inactive: > 76.9 µM.

As for `CCOC(=O)C1CCN(S(=O)(=O)c2cccc(-c3csc(C)n3)c2)CC1`, the Potency was inactive: > 76.9 µM.

With `CNc1nc(C)c(C#N)c(-c2ccccc2)c1C(C)=O`, the Potency was inactive: > 76.9 µM.

As for `CN1C(=O)c2cccc3c(S(=O)(=O)Nc4ccccn4)ccc1c23`, the Potency is inactive: > 76.9 µM.

Regarding `CC1CCc2sc3ncnc(N4CCOCC4)c3c2C1` (centres undefined), the Potency is inactive: > 76.9 µM.

Consider `CCOc1ccc(NC(=O)c2nccnc2CO)cc1`, for which the Potency was inactive: > 76.9 µM.

Turning to `O=C(OC1CCOC1=O)c1ccc2ccccc2n1` (centres undefined), the Potency was inactive: > 76.9 µM.

In the case of `C(=N\n1cnnc1)/c1ccc(N2CCOCC2)s1`, the Potency is inactive: > 76.9 µM.

Take `COc1cc(-c2nnc(SCC(=O)Nc3cc(C)on3)n2C)cc(OC)c1O`: the Potency is inactive: > 76.9 µM.

In the case of `COc1ccc(CCNC(=O)CN(C)S(=O)(=O)c2cccs2)cc1OC`, the Potency was inactive: > 76.9 µM.

On to `CC(C)OCCCn1c(=S)[nH]c2ccc(N3CCOCC3)cc2c1=O`, for which the Potency was inactive: > 76.9 µM.

Take `COC(=O)Cn1nc(-c2ccccc2)c2ccccc21`: the Potency was inactive: > 76.9 µM.

For `CCc1nnc(NC(=O)CSc2nnc(-c3ccc(OC)cc3)n2C)s1`, the Potency was inactive: > 76.9 µM.

Take `COc1cccc(Cn2cccc(NC(=O)NC3CCCCC3)c2=O)c1`: the Potency is inactive: > 76.9 µM.
